In all, about 94,000 compounds went through this assay and about 4,000 (4.3%) were called active. This list was built around the results that the source calls inconclusive (neither active nor inactive); the mix of calls is not that of the screen. Calls follow the shape of the dose curve; as a rule, active = well fitted inhibition curve with a large enough effect; inconclusive = small, poorly fitted or top-dose-only effect; inactive = no such curve, though single readings can be large or run the other way. Potencies beside an inconclusive call are fits to weak or partial responses and may not hold up.
experiment: Cytotoxic Profiling in NIH 3T3 Cell Line of Diverse Libraries Using Quantitative High-Throughput Screening; conditions: NIH 3T3 viability, CellTiter-Glo ATP luminescence, 48-72 h; activity change, negative = cytotoxicity: at 96.7 µM (top of the series) unless noted; series mostly up to 96.7 µM; also: nearly all actives have a fitted effect of over 55% in size
In short: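 Mouse fibroblast NIH 3T3 cells, 400 per well, received compound via pintool and were incubated for 48 or 72 hr prior to CellTiter-Glo ATP luminescence measurement.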
% is scaled to controls: 0 for no effect and ±100 for the full control effect; potency is read from the fitted curve at half-maximal effect; tags tell the direction and shape of the fitted curve.

| SMILES | Potency | activity change, negative = cytotoxicity |
| --- | --- | --- |
| COc1cc(=O)n2c(c1C(=O)Nc1ccc(C(F)(F)F)cc1)CCCC2 | inconclusive: 11.2 µM [inhibitor, partial curve, poor fit] | – |
| COCCNC(=O)[C@H]1C[C@H](Oc2ccccc2)CN1C(=O)NCc1ccc(F)cc1 | inconclusive: 50.1 µM [inhibitor, partial curve, poor fit] | – |
| CCNc1ncnc2sc3c(c12)CCN(Cc1ccc[nH]1)C3 | active: 39.8 µM | – |
| CCOC(=O)C1CCN(C(=O)c2nc3sccn3c2-c2ccc(F)cc2)CC1 | inconclusive: 56.2 µM [inhibitor, partial curve, poor fit] | – |
| O=C1COc2ccc(Oc3ccccc3)nc2CN1Cc1ccccc1 | inconclusive: 44.7 µM [inhibitor, partial curve, poor fit] | – |
| CC1=C[C@@H](CNC(=O)c2ccccc2)[C@H](C(C)C)C[C@H]1CC(=O)NCc1cccnc1 | inconclusive: 79.4 µM [inhibitor, partial curve, poor fit] | – |
| C=CCn1cc2c3c(cccc31)[C@H](CC(C)C)N[C@H](C(=O)N1CCOCC1)C2 | inconclusive: 100 µM [inhibitor, partial curve] | – |
| Cc1ccc(-c2nc(CC(=O)Nc3ccc4c(c3)C(=O)N3CCC[C@H]3C(=O)N4)cs2)cc1 | inconclusive: 50.1 µM [inhibitor, partial curve, poor fit] | – |
| CN1CCCCCCN(C(=O)c2cccs2)[C@H]2CCC[C@H]2C1=O | – | inactive: -0.0043% |
| C1=C(c2cc(-c3cccc(N4CCOCC4)c3)cn3cncc23)CCOC1 | inconclusive: 100 µM [inhibitor, partial curve, poor fit] | – |
| COc1ccccc1-c1cn2c(n1)CO[C@@H](CNCc1cccnc1)C2 | – | inactive: -28.8% [at 138 µM] |
| O=S(=O)(NC[C@@H]1CCNC[C@H]1O)c1ccc(OC(F)(F)F)cc1 | inconclusive: 50.1 µM [inhibitor, partial curve, poor fit] | – |
| CC(=O)Nc1ccc(CNC[C@H]2Cn3c(-c4ccc(F)cc4)cnc3CO2)cc1 | inconclusive: 56.2 µM [inhibitor, partial curve, poor fit] | – |
| COc1ccc(-c2cn(C)c(=O)n3cc(COc4ccccc4)nc23)cn1 | inconclusive: 63.1 µM [inhibitor, partial curve, poor fit] | – |
| CN(Cc1ccccc1)C(=O)c1cc(-c2ccncc2)cn1C | inconclusive: 50.1 µM [inhibitor, partial curve, poor fit] | – |
| O=C1N(c2ccccc2)c2ccccc2C12CCN(Cc1cccc3ccccc13)C2 (stereo unspecified) | inconclusive: 28.2 µM [inhibitor, partial curve] | – |
| O=C(c1ccccc1)N1CCCC(C(=O)N2CCC(c3nc4ncccc4[nH]3)CC2)C1 (stereo unspecified) | – | inactive: -18.3% |
| CCc1nc2c(c(-c3ccc(OC)cc3)n1)CCN(Cc1ccnn1C)CC2 | inconclusive: 39.8 µM [inhibitor, partial curve, poor fit] | – |
| COc1cccc(CN2CCC3(COc4ccccc4C(=O)N3)C2)c1 (stereo unspecified) | active: 39.8 µM | – |
| CC1=NS(=O)(=O)N(C)C=C1C(=O)OCc1nc(C2CCCCC2)no1 | inconclusive: 44.7 µM [inhibitor, partial curve, poor fit] | – |
| Cc1cccc(NC(=O)CN2C(=O)NC3(CCC(C)CC3)C2=O)c1C (stereo unspecified) | inconclusive: 50.1 µM [inhibitor, partial curve, poor fit] | – |

| SMILES | Potency | activity change, negative = cytotoxicity |
| --- | --- | --- |
| O=C(NCc1ccc(Cl)cc1)c1cn2cc(-c3ccccc3)sc2n1 | – | inactive: -10.8% |
| O=C(NCCc1ccc(Cl)cc1)c1ccc2nnc(-c3cc[nH]c3)n2c1 | inconclusive: 6.31 µM [inhibitor, full curve] | – |
| COc1cccc(C2CCN(Cc3cn(-c4ccccc4)nn3)C2)c1OC (stereo unspecified) | inconclusive: 56.2 µM [inhibitor, partial curve, poor fit] | – |
| Cc1nn2c(c1-c1ccccc1OCc1ccccc1)N(C(=O)c1cccnc1)CCC2 | inconclusive: 79.4 µM [inhibitor, partial curve] | – |
| O=C(c1cccc(Cl)c1)N1CCc2nc(-c3ccc(Cl)cc3)nc(-c3ccccc3)c2C1 | inconclusive: 70.8 µM [inhibitor, single point] | – |
| FC(F)(F)c1cccc(CCC2CCCN(Cc3cccnc3)C2)c1 (stereo unspecified) | – | inactive: -28.7% |
| O=C(NCC(F)F)C1CCCCN1Cc1ccc(-c2ccsc2)cc1 (stereo unspecified) | inconclusive: 39.8 µM [inhibitor, partial curve, poor fit] | – |
| O=C(Nc1ccncn1)[C@@H]1C[C@@H](c2ccc(F)cc2)N(Cc2ccccc2)C1 | active: 79.4 µM | – |
| COc1ccc(-c2nc(C)nc3c2CN([S+](=O)([O-])c2ccccc2)CC3)cc1 | active: 35.5 µM | – |
| O=C(CCCc1ccccc1)N1CCCCCC1c1nc(C2CC2)no1 (stereo unspecified) | inconclusive: 70.8 µM [inhibitor, single point] | – |
| Cc1ccc(-c2cn3cc(C(=O)NCc4cccc(Cl)c4)nc3s2)cc1 | inconclusive: 44.7 µM [inhibitor, partial curve, poor fit] | – |
| Cc1ccc(-c2noc([C@@H]3Cc4nc[nH]c4CN3Cc3cccs3)n2)cc1 | active: 79.4 µM | – |
| O=C(CNC(=O)c1ccc(-c2cnc3ccccc3c2)cc1)NC1CCCCCC1 | inconclusive: 79.4 µM [inhibitor, partial curve, poor fit] | – |
| COc1ccc(-c2nc(C3CC3)nc3c2CCN([S+](=O)([O-])c2cccc(C(F)(F)F)c2)CC3)cc1 | inconclusive: 39.8 µM [inhibitor, partial curve, poor fit] | – |
| COc1ccc(-c2c(C(=O)NCc3ccc(Cl)cc3)nc3sccn23)cc1 | inconclusive: 39.8 µM [inhibitor, partial curve] | – |
| COc1ccc(CCNC(=O)C2CCCN(Cc3cccc(-c4cccc(C)c4)c3)C2)cc1 (stereo unspecified) | inconclusive: 44.7 µM [inhibitor, partial curve, poor fit] | – |
| O=C(C[C@@H]1CCNC[C@@H]1Cc1cc(-c2ccc(F)cc2)on1)NCc1ccco1 | inconclusive: 126 µM [inhibitor, single point] | – |
| CCOC(=O)c1ccccc1NC(=O)Cn1c(N(C)Cc2ccccc2)nc(C)cc1=O | – | inactive: -13.2% |
| CC(C)CN1C(=O)c2cccn2CC1C(=O)NCc1cccs1 (stereo unspecified) | inconclusive: 50.1 µM [inhibitor, partial curve, poor fit] | – |
| CCOc1ccc(NC(=O)Cn2c(C)cc3nc4n(c(=O)c32)CCCCC4)cc1 | inconclusive: 70.8 µM [inhibitor, single point] | – |
| O=C(NCc1ccccc1Cl)c1ccc2nnc(CC3CC3)n2c1 | inconclusive: 50.1 µM [inhibitor, partial curve, poor fit] | – |

| SMILES | Potency | activity change, negative = cytotoxicity |
| --- | --- | --- |
| Cc1nn(Cc2ccccc2)c(C)c1[C@@H]1C=C[C@@H](NC(=O)NC2CCCCC2)C1 | inconclusive: 63.1 µM [inhibitor, partial curve, poor fit] | – |
| O=C(NCCc1ccc(Cl)cc1)c1cn2cc(-c3ccc(F)cc3)sc2n1 | inconclusive: 50.1 µM [inhibitor, partial curve, poor fit] | – |
| O=C(N[C@@H]1CN(Cc2c[nH]c3ccccc23)C[C@H]1CO)c1ccccc1 | – | inactive: -9.36% |
| Cn1c(CNC(=O)CN2C(=O)C3(CCCCC3)C2c2ccccc2)nc2ccccc21 (stereo unspecified) | inconclusive: 50.1 µM [inhibitor, partial curve, poor fit] | – |
| Cc1ccccc1S(=O)(=O)N1CCC(c2noc(-c3ccccn3)n2)C1 (stereo unspecified) | – | inactive: -13.8% |
| O=C1CC(c2ccccc2)N(Cc2ccncc2)CCCN(Cc2cccnc2)CCN1 (stereo unspecified) | – | inactive: -27.4% |
| Cn1cncc1CNC(=O)c1nc(-c2cccc(N3CCOCC3)c2)cc2c1ccn2C | active: 50.1 µM | – |
| O=C(Cc1cccc(F)c1)N1CCN(c2cc(-c3cccs3)[nH]n2)CC1 | inconclusive: 44.7 µM [inhibitor, partial curve, poor fit] | – |
| O=C(NCc1ccncc1)c1cc(C2CC2)nc2onc(C3CCCN3)c12 (stereo unspecified) | inconclusive: 79.4 µM [inhibitor, partial curve, poor fit] | – |
| O=C(CN1C(=O)NC2(CCCCC2)C1=O)Nc1ccc(F)cc1 | – | inactive: -10.8% |
| OC1(CN2CCCCC2)CCN(Cc2ccc(Cl)cc2)C1 (stereo unspecified) | inconclusive: 89.1 µM [inhibitor, partial curve, poor fit] | – |
| Cc1ccc(C)c(NC(=O)C2CCN(C(=O)c3ncn4c3COC(c3ccc(F)cc3)C4)CC2)c1 (stereo unspecified) | – | inactive: -18.8% |
| O=C(Nc1ccc(F)c(Cl)c1)c1cc2n(n1)CC(c1ccc3c(c1)OCO3)OC2 (stereo unspecified) | inconclusive: 44.7 µM [inhibitor, partial curve, poor fit] | – |
| Cc1ccccc1CC(=O)NC1CCN(c2cc(-c3ccccc3)[nH]n2)C1 (stereo unspecified) | inconclusive: 44.7 µM [inhibitor, partial curve, poor fit] | – |
| Cc1ccc(C)c(OCC(=O)c2ccc3c(c2)N(CCCC(=O)NCC2CC2)C(=O)CO3)c1 | inconclusive: 44.7 µM [inhibitor, partial curve, poor fit] | – |
| COC(=O)[C@@H]1Cc2c([nH]c3ccccc23)[C@H]2C[C@@H](NCCN3CCOCC3)C[C@@H](c3ccc(F)c(F)c3)N21 | active: 28.2 µM | – |
| CN1CCN(Cc2nc(C3(O)CCN(Cc4ccccc4)CC3)cs2)CC1 | inconclusive: 112 µM [inhibitor, partial curve] | – |
| Cc1cc(F)ccc1OC1CN(C(=O)c2ccc3c(c2)OCO3)C1 | inconclusive: 7.94 µM [inhibitor, full curve, poor fit] | – |
| c1ccc(-c2nnc3ccc(-c4ccoc4)nn23)nc1 | inconclusive: 100 µM [inhibitor, partial curve] | – |

— PubChem BioAssay AID1345082 (National Center for Advancing Translational Sciences (NCATS), 2018)
